Positions count from the first letter of the chain named. This is one part of the list.
T1: RBFOX1 RRM (Homo sapiens, UniProt Q9NWB1 109-208)
T1 sequence: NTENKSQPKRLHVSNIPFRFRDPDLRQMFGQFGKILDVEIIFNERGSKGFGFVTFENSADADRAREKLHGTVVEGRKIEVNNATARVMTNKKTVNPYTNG

B1: UCACUGA (DNA:RNA)
RNA: GGGAGACCGGAAUUCAGAUUGUCCUCACUGAUUAAAUCCCGUCGUAGCCACCA
DNA 1: CAATCTGAATTCCGGTCTCCC
DNA 2: TGGTGGCTACGACGGGATT
B2: CCCAGGG (DNA:RNA)
RNA: B1 RNA with U25C, A27C, C28A, U29G, A31G
DNA 1: CAATCTGAATTCCGGTCTCCC
DNA 2: TGGTGGCTACGACGGGATT
B3: CUGCUAA (DNA:RNA)
RNA: B1 RNA with U25C, C26U, A27G, G30A
DNA 1: CAATCTGAATTCCGGTCTCCC
DNA 2: TGGTGGCTACGACGGGATT
B4: AUAGACG (DNA:RNA)
RNA: B1 RNA with U25A, C26U, C28G, U29A, G30C, A31G
DNA 1: CAATCTGAATTCCGGTCTCCC
DNA 2: TGGTGGCTACGACGGGATT
B5: CGUGGGG (DNA:RNA)
RNA: B1 RNA with U25C, C26G, A27U, C28G, U29G, A31G
DNA 1: CAATCTGAATTCCGGTCTCCC
DNA 2: TGGTGGCTACGACGGGATT
B6: GUGACGC (DNA:RNA)
RNA: B1 RNA with U25G, C26U, A27G, C28A, U29C, A31C
DNA 1: CAATCTGAATTCCGGTCTCCC
DNA 2: TGGTGGCTACGACGGGATT
B7: CGCGCAU (DNA:RNA)
RNA: GGGAGACCGGAAUUCAGAUUGUCCCGCGCAUUUAAAUCCCGUCGUAGCCACCA
DNA 1: CAATCTGAATTCCGGTCTCCC
DNA 2: TGGTGGCTACGACGGGATT
B8: GGAUCGG (DNA:RNA)
RNA: B7 RNA with C25G, C27A, G28U, A30G, U31G
DNA 1: CAATCTGAATTCCGGTCTCCC
DNA 2: TGGTGGCTACGACGGGATT
B9: GAUCGGA (DNA:RNA)
RNA: B1 RNA with U25G, C26A, A27U, U29G
DNA 1: CAATCTGAATTCCGGTCTCCC
DNA 2: TGGTGGCTACGACGGGATT
B10: AGCAUAA (DNA:RNA)
RNA: B7 RNA with C25A, G28A, C29U, U31A
DNA 1: CAATCTGAATTCCGGTCTCCC
DNA 2: TGGTGGCTACGACGGGATT
B11: CUACCGU (DNA:RNA)
RNA: B7 RNA with G26U, C27A, G28C, A30G
DNA 1: CAATCTGAATTCCGGTCTCCC
DNA 2: TGGTGGCTACGACGGGATT
B12: AGAUUGU (DNA:RNA)
RNA: B1 RNA with U25A, C26G, C28U, A31U
DNA 1: CAATCTGAATTCCGGTCTCCC
DNA 2: TGGTGGCTACGACGGGATT
B13: UUUCAAC (DNA:RNA)
RNA: B1 RNA with C26U, A27U, U29A, G30A, A31C
DNA 1: CAATCTGAATTCCGGTCTCCC
DNA 2: TGGTGGCTACGACGGGATT
B14: UUCUAGC (DNA:RNA)
RNA: B1 RNA with C26U, A27C, C28U, U29A, A31C
DNA 1: CAATCTGAATTCCGGTCTCCC
DNA 2: TGGTGGCTACGACGGGATT
B15: CGUGUCU (DNA:RNA)
RNA: B7 RNA with C27U, C29U, A30C
DNA 1: CAATCTGAATTCCGGTCTCCC
DNA 2: TGGTGGCTACGACGGGATT
B16: UGAUCUC (DNA:RNA)
RNA: B7 RNA with C25U, C27A, G28U, A30U, U31C
DNA 1: CAATCTGAATTCCGGTCTCCC
DNA 2: TGGTGGCTACGACGGGATT
B17: UAACAAU (DNA:RNA)
RNA: B1 RNA with C26A, U29A, G30A, A31U
DNA 1: CAATCTGAATTCCGGTCTCCC
DNA 2: TGGTGGCTACGACGGGATT
B18: GUAUUAG (DNA:RNA)
RNA: B1 RNA with U25G, C26U, C28U, G30A, A31G
DNA 1: CAATCTGAATTCCGGTCTCCC
DNA 2: TGGTGGCTACGACGGGATT
B19: GUAUAUA (DNA:RNA)
RNA: B1 RNA with U25G, C26U, C28U, U29A, G30U
DNA 1: CAATCTGAATTCCGGTCTCCC
DNA 2: TGGTGGCTACGACGGGATT
B20: CUUGCAA (DNA:RNA)
RNA: B7 RNA with G26U, C27U, U31A
DNA 1: CAATCTGAATTCCGGTCTCCC
DNA 2: TGGTGGCTACGACGGGATT
B21: ACAUUCU (DNA:RNA)
RNA: B1 RNA with U25A, C28U, G30C, A31U
DNA 1: CAATCTGAATTCCGGTCTCCC
DNA 2: TGGTGGCTACGACGGGATT
B22: GUGAUUG (DNA:RNA)
RNA: B1 RNA with U25G, C26U, A27G, C28A, G30U, A31G
DNA 1: CAATCTGAATTCCGGTCTCCC
DNA 2: TGGTGGCTACGACGGGATT
B23: CAGAAAA (DNA:RNA)
RNA: B7 RNA with G26A, C27G, G28A, C29A, U31A
DNA 1: CAATCTGAATTCCGGTCTCCC
DNA 2: TGGTGGCTACGACGGGATT
B24: AAUGUAA (DNA:RNA)
RNA: B7 RNA with C25A, G26A, C27U, C29U, U31A
DNA 1: CAATCTGAATTCCGGTCTCCC
DNA 2: TGGTGGCTACGACGGGATT
B25: AUAUCGU (DNA:RNA)
RNA: B7 RNA with C25A, G26U, C27A, G28U, A30G
DNA 1: CAATCTGAATTCCGGTCTCCC
DNA 2: TGGTGGCTACGACGGGATT
B26: GAUAACA (DNA:RNA)
RNA: B1 RNA with U25G, C26A, A27U, C28A, U29A, G30C
DNA 1: CAATCTGAATTCCGGTCTCCC
DNA 2: TGGTGGCTACGACGGGATT
B27: AAAACGG (DNA:RNA)
RNA: B1 RNA with U25A, C26A, C28A, U29C, A31G
DNA 1: CAATCTGAATTCCGGTCTCCC
DNA 2: TGGTGGCTACGACGGGATT
B28: UAGCUCC (DNA:RNA)
RNA: B1 RNA with C26A, A27G, G30C, A31C
DNA 1: CAATCTGAATTCCGGTCTCCC
DNA 2: TGGTGGCTACGACGGGATT
B29: CACACCC (DNA:RNA)
RNA: B7 RNA with G26A, G28A, A30C, U31C
DNA 1: CAATCTGAATTCCGGTCTCCC
DNA 2: TGGTGGCTACGACGGGATT
B30: CGGUUGA (DNA:RNA)
RNA: B1 RNA with U25C, C26G, A27G, C28U
DNA 1: CAATCTGAATTCCGGTCTCCC
DNA 2: TGGTGGCTACGACGGGATT
B31: UACCAUA (DNA:RNA)
RNA: B1 RNA with C26A, A27C, U29A, G30U
DNA 1: CAATCTGAATTCCGGTCTCCC
DNA 2: TGGTGGCTACGACGGGATT

The binders below were run against T1, RBFOX1 RRM (assay: EMSA; HiTS-Eq, 1 nM pool, 10 min; buffer printed only for the single-RNA assays: 10 mM Tris pH 7.5, 150 mM NaCl, 3.4 mM EDTA, 0.001% NP-40, 30 C). Conditions: tags: His6 N-terminal (pET28a); label: 5' 32P.
How it was run: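 These values rest on relative association constants, computed from read-count changes of each RNA species versus the control reaction and normalised to the cognate motif. Reads came from free RNA recovered by 8% native PAGE after purified RbFox RRM (wild type or mutant) at increasing concentrations was equilibrated for 10 min in 50 µL with 1 nM of a 5′-radiolabelled pool with 7 randomized nucleotides and DNA-annealed flanks.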

Binder | binding signal
B1 | 0.0105 KA relative to UGCAUGU
B2 | 0.00478 KA relative to UGCAUGU
B3 | 0.00924 KA relative to UGCAUGU
B4 | 0.00421 KA relative to UGCAUGU
B5 | 0.00558 KA relative to UGCAUGU
B6 | 0.0147 KA relative to UGCAUGU
B7 | 0.0125 KA relative to UGCAUGU
B8 | 0.0132 KA relative to UGCAUGU
B9 | 0.0063 KA relative to UGCAUGU
B10 | 0.00471 KA relative to UGCAUGU
B11 | 0.00445 KA relative to UGCAUGU
B12 | 0.0119 KA relative to UGCAUGU
B13 | 0.00553 KA relative to UGCAUGU
B14 | 0.00968 KA relative to UGCAUGU
B15 | 0.0155 KA relative to UGCAUGU
B16 | 0.0106 KA relative to UGCAUGU

Binder | binding signal
B17 | 0.00334 KA relative to UGCAUGU
B18 | 0.0103 KA relative to UGCAUGU
B19 | 0.00391 KA relative to UGCAUGU
B20 | 0.00807 KA relative to UGCAUGU
B21 | 0.000537 KA relative to UGCAUGU
B22 | 0.0236 KA relative to UGCAUGU
B23 | 0.000855 KA relative to UGCAUGU
B24 | 0.00664 KA relative to UGCAUGU
B25 | 0.00482 KA relative to UGCAUGU
B26 | 0.00439 KA relative to UGCAUGU
B27 | 0.0043 KA relative to UGCAUGU
B28 | 0.00512 KA relative to UGCAUGU
B29 | 0.00117 KA relative to UGCAUGU
B30 | 0.0194 KA relative to UGCAUGU
B31 | 0.00257 KA relative to UGCAUGU

— publication PMC9911399, “Two distinct binding modes provide the RNA-binding protein RbFox with extraordinary sequence specificity”
